These are yes or no findings as the source states them, for the method shown. Binding seen in cells or lysates may run through a third protein. Some binding calls cover weakened binding; strength is not graded here.

Protein sequences, listed by entry. Tags and fused reporters are not part of them. Residues count along the entry.
UniProt Q03265, residues 44-553: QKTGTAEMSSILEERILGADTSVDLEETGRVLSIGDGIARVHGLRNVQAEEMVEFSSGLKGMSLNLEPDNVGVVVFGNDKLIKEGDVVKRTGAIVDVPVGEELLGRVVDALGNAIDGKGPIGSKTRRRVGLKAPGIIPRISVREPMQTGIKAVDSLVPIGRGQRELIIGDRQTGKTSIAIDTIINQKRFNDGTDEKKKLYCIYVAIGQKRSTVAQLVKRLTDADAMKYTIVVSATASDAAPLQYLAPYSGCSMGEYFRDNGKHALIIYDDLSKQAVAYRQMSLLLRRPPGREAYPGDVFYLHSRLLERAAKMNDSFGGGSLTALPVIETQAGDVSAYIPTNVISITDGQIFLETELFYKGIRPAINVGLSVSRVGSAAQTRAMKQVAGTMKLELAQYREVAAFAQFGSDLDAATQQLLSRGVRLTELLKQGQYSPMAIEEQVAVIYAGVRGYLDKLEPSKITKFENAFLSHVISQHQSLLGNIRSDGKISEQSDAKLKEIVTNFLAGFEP
UniProt Q9D6J5, residues 29-186: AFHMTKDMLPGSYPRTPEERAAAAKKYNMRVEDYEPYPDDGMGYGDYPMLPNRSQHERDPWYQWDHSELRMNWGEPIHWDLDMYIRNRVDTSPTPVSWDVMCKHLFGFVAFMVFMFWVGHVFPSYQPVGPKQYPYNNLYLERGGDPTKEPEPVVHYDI

These results are taken from PMC7459111.

The assay concerns the target T1, regulator of G-protein signaling 12 (RGS12) (mouse (endogenous in mouse chondrocytes)) (UniProt Q8CGE9).
T1 sequence: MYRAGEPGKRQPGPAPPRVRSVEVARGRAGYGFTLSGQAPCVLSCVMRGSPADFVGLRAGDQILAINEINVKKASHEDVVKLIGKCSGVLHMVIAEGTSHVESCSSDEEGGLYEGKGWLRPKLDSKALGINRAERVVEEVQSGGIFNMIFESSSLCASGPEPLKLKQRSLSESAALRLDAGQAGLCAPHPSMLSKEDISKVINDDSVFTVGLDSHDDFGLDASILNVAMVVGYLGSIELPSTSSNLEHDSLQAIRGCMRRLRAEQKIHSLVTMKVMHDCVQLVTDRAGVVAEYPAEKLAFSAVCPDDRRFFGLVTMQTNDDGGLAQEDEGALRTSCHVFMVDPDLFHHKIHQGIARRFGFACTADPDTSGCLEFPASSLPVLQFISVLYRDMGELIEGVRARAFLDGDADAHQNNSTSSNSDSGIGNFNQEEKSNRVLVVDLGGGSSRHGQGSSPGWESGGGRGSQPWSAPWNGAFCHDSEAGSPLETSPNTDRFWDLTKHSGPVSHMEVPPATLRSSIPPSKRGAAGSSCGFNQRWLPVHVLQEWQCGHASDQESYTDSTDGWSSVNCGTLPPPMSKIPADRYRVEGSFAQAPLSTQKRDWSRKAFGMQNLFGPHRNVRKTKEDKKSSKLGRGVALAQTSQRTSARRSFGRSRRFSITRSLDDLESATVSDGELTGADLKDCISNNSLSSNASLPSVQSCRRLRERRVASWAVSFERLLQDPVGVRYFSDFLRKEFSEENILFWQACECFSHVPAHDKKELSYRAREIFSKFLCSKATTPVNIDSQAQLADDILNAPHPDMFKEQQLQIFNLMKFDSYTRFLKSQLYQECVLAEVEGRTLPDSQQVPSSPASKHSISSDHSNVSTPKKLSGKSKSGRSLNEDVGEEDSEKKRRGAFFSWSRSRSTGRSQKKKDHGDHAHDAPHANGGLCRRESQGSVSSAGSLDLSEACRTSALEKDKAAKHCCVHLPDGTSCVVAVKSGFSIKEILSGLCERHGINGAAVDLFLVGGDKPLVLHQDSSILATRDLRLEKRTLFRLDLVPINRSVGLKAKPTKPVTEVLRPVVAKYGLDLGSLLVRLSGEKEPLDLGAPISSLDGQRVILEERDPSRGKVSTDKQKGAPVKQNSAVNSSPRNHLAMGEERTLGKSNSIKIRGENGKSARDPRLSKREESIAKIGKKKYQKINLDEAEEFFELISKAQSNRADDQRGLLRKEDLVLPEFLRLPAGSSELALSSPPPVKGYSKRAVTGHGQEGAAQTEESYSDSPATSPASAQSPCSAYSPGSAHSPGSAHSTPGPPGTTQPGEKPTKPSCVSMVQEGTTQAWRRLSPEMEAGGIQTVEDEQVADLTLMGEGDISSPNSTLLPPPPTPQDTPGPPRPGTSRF
In words: co-IP; cell lysates of mouse chondrocytes (NP-40 buffer) incubated with anti-RGS12 or control IgG, protein A/G beads; bound protein blotted with the OXPHOS antibodies.

As for MTCO1 (from UniProt P00397 1-514), the binding entry is on record as “no binding”.
For the substance “ATP Synthase F1 Subunit Alpha (ATP5A) (from UniProt Q03265 44-553)”, the binding result was “binds”.
Turning to NDUFB8 (from UniProt Q9D6J5 29-186), the binding entry was “no binding”.
